The values that follow come from paper PMC11268115.

Amino acid sequences for entries named in this document (tags omitted).
UniProt O15392: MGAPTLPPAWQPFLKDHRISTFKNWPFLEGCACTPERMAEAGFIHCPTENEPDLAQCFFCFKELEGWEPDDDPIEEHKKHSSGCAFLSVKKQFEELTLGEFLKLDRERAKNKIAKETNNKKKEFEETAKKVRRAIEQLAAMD

No constants are given. Whether binding was seen depends on the method and setting. Binding seen in cells or lysates may run through a third protein. Some binding calls cover weakened binding; strength is not graded here. Tags and fused reporters may be left off the sequences shown.

Common to all, as to assay: co-IP; HEK-293 cells cotransfected with tagged plasmids, lysed after 24 h in cell lysis buffer with protease inhibitors; immunoprecipitation with Myc-Tag, HA-Tag or anti-Flag (M2) magnetic beads, Western blot of the tags
(In general: Immunoblotting shows a protein as a band on a membrane.)

In assay [1] the target is T1, Myc-USP36 (1–420 aa), N-terminal USP domain (UniProt Q9P275).
T1 sequence: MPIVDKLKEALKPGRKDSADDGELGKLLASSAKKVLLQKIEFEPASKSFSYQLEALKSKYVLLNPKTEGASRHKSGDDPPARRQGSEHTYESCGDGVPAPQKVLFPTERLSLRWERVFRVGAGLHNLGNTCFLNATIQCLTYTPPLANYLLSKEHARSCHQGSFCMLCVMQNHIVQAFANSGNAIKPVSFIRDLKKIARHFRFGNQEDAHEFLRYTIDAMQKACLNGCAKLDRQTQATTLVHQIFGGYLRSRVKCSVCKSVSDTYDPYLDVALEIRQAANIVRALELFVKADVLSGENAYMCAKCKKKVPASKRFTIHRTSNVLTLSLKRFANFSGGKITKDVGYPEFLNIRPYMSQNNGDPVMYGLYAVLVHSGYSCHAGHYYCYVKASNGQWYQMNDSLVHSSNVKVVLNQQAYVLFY

Assay [2] addresses T2, Myc-USP36 (ubiquitin-specific protease 36), full length, WT (UniProt Q9P275).
T2 sequence: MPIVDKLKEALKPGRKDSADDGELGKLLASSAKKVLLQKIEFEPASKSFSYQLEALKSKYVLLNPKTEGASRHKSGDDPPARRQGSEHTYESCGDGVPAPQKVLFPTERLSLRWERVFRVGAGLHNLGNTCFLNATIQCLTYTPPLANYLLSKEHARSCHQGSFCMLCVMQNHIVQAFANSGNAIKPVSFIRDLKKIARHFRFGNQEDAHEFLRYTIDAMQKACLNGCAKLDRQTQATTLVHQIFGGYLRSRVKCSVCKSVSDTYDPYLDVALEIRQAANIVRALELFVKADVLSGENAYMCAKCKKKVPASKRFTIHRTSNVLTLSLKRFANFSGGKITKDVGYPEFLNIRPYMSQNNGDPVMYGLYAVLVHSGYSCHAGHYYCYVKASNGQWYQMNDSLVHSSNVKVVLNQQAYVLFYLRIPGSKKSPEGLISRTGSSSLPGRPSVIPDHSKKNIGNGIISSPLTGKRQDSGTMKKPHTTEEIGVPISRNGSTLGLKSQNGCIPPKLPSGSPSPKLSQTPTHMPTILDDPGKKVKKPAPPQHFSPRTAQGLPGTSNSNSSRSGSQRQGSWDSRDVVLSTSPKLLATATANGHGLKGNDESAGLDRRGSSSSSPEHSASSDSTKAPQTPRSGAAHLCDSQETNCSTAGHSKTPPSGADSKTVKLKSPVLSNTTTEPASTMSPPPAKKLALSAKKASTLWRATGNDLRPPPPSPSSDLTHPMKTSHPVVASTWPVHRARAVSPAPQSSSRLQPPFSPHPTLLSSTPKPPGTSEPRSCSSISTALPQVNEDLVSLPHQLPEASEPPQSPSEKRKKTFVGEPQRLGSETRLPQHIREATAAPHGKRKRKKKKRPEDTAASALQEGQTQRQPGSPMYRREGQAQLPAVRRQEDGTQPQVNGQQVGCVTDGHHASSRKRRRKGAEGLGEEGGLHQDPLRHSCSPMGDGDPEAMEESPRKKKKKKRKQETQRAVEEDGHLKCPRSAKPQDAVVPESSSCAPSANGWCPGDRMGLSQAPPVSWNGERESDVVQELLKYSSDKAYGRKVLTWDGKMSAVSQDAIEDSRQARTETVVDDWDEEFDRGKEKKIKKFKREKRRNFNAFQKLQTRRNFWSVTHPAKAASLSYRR

In assay [3] the target is T3, Myc-USP36 (801–1121 aa), C-terminal domain (UniProt Q9P275).
T3 sequence: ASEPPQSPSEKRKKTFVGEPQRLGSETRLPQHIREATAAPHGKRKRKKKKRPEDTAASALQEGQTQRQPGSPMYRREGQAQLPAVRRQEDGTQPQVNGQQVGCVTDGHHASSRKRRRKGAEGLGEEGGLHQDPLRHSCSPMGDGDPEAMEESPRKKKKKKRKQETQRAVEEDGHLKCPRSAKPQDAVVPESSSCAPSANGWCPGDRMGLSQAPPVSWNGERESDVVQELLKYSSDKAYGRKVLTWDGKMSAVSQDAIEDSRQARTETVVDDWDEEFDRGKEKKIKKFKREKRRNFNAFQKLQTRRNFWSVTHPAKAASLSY

In assay [4] the target is T4, Myc-USP36 (1–800 aa) (UniProt Q9P275).
T4 sequence: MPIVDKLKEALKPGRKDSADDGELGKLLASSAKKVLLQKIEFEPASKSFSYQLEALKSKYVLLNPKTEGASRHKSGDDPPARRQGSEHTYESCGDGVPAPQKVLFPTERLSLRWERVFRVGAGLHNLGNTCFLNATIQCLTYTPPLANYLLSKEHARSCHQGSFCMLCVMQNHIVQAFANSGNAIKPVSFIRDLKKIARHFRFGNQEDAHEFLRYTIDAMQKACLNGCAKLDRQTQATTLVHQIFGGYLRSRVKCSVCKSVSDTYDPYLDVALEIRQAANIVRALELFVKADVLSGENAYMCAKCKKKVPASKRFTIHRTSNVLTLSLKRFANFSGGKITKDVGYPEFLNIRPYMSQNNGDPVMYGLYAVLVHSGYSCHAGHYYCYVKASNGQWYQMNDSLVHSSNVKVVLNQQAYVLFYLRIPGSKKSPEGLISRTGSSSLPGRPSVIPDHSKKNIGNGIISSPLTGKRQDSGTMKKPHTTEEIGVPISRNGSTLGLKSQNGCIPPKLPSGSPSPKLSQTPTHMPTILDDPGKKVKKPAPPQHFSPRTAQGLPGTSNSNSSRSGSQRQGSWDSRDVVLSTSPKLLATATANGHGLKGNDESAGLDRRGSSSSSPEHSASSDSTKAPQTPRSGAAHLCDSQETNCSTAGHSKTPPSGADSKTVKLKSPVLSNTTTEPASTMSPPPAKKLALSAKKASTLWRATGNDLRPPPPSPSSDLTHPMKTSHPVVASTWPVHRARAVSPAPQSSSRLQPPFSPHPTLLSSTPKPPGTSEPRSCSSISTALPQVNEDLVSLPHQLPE

For the substance HA-survivin (from UniProt O15392 1-142), the binding entry is on record as “binds” in assay [1], “binds” in assay [2], “no binding” in assay [3] and “binds” in assay [4].
